Experimental data: paper PMC4336329 (PLoS ONE, 2015)
Hit rate of the full screen: of about 310,000 compounds, about 14,000 (4.5%) showed an effect of 50% or more. Effects have a minus sign here. Some of the results follow.

Biological target: human ether-à-go-go-related gene (hERG) potassium channel (human, UniProt Q12809)
Experiment: primary screen, population patch clamp on CHO cells stably expressing hERG
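Also: peak tail current of the secondary pulse compared with the same well before compound.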

human ether-à-go-go-related gene (hERG) potassium channel, sequence (Q12809 whole entry, looked up): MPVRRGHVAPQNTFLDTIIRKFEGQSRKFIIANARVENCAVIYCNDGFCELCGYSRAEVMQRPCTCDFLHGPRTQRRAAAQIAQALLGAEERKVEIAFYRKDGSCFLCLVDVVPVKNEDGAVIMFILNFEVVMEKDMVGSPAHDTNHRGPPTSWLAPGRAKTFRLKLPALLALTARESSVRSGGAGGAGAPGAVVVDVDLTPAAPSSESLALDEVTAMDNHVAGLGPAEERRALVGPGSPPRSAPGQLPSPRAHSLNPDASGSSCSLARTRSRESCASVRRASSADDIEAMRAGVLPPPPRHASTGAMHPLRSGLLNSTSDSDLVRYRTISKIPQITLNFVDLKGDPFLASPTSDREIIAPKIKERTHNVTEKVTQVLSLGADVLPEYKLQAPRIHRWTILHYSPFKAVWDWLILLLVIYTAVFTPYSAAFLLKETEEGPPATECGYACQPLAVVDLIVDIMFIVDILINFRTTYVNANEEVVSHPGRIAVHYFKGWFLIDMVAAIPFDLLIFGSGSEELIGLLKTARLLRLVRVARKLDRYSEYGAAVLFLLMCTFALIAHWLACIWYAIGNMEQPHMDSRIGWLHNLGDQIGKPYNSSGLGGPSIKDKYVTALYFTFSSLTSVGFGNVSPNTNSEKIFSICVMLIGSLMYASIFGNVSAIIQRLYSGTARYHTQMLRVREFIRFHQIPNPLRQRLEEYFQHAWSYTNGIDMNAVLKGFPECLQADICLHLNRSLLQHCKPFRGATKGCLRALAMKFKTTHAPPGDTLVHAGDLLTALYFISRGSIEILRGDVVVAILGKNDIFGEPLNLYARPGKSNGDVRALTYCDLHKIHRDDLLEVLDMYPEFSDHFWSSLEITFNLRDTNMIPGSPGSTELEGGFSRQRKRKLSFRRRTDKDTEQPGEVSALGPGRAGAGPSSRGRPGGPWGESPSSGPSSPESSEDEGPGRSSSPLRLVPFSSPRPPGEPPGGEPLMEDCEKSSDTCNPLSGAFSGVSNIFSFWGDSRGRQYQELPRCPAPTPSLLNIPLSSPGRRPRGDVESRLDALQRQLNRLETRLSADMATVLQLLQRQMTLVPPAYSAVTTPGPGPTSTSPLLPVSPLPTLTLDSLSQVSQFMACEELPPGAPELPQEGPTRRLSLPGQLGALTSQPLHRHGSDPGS

| SMILES | hERG current change (%, negative = inhibition) at 10uM [%] |
| --- | --- |
| COc1ccc(S(=O)(=O)N2CCOCC2)cc1NC(=O)CSc1nnc2ccccn12 | 5.54 |
| O=C(O)/C=C/c1ccc(S(=O)(=O)Nc2ccc(C(=O)NCC(=O)O)cc2)cc1 | 2.62 |
| C=CCc1cccc(CNc2c(C)n(C)n(-c3ccccc3)c2=O)c1O | -0.383 |
| CCCn1c2ccccc2c2cnn(CC(=O)NC3CCC(C)CC3)c(=O)c21 (centres unmarked) | 9.11 |
| Cn1c(SCC(=O)NCc2ccco2)nnc1-c1ccccc1 | -2.54 |
| Cc1nc2c3ccccc3nc(NNC(=O)CCC(=O)NCCN3CCN(c4ccccc4)CC3)n2n1 | 7.42 |
| CCC(C(=O)Nc1cccc(C(=O)O)c1C)c1ccccc1 (centres unmarked) | 7.82 |
| CCC(C)(C)NC(=O)C(c1cccs1)N(C(=O)c1ccn[nH]1)c1cccc(OC)c1 (centres unmarked) | -38.5 |
| O=C(NCC1CCOCC1)c1ccc2nc(Cc3cccc(Cl)c3)oc2c1 | -12.8 |
| CN(C)S(=O)(=O)c1ccc(NC(=O)c2ccc([N+](=O)[O-])cc2)cc1 | 4.59 |
| Cc1ccc(NC(=O)CCC(=O)N/N=C/c2coc3ccccc3c2=O)cc1 | 0.733 |
| COc1cc2c(cc1OC)CN(C(=O)c1cc(C3CC3)nn1-c1ccccc1)CC2 | -56.2 |
| CCCn1c(SCC(=O)N2CCCCC2)nnc1-c1ccccn1 | 2.6 |
| C/C=C/C(=O)NCCc1ccc(OC)c(OC)c1 | 16.9 |
| CCC(CC)C(=O)NCCN1CCN(C(=O)C(CC)CC)CC1 | 14.4 |
| COc1ccc(CCC(=O)Nc2ccccc2C(F)(F)F)cc1 | 1.9 |
| O=C(Nc1ccc(Br)cc1)c1ccc(-n2cnnn2)cc1 | 13.2 |
| S=C(NC1CCCCC1)N(CCc1nc2ccccc2[nH]1)C1CCCC1 | 4.83 |
| Cc1cc(C)cc(NC(=S)NCc2ccncc2)c1 | -4.58 |

| SMILES | hERG current change (%, negative = inhibition) at 10uM [%] |
| --- | --- |
| CCN(CC)CC(=O)Nc1ccc(Cl)cc1C(=O)c1ccccc1 | -21.2 |
| O=C(O)c1ccc(NS(=O)(=O)c2ccc(Cl)cc2)cc1 | 0.513 |
| CCSC1=C(C#N)C(c2ccccc2Cl)CC(=O)N1 (centres unmarked) | 3.95 |
| CN(Cc1nccn1C)C(=O)CC1C(=O)NCCN1Cc1ccccc1C(F)(F)F (centres unmarked) | 17.7 |
| CC(C)(C)c1ccccc1NC(=O)c1ccc(-n2cncn2)c([N+](=O)[O-])c1 | -2.44 |
| C(=C\c1ccccc1)/C=N/N1CCN(c2ccccn2)CC1 | -1.04 |
| O=C(CSc1ccc2nnc(-c3cccnc3)n2n1)NCc1ccc2c(c1)OCO2 | -53.3 |
| CC(C(=O)NCCc1ccccc1)N1c2cccc3cccc(c23)S1(=O)=O (centres unmarked) | -21.2 |
| Cc1ccc(N(CCCCN2C(=O)c3ccccc3C2=O)C(=O)c2ccc(Cl)s2)cc1 | 2.79 |
| COc1cccc(C(=O)NCCCN2CCN(CCCNC(=O)c3cccc(OC)c3)CC2)c1 | -85.4 |
| CCCCc1ccc(NC(=S)N2CCN(C(=O)c3ccco3)CC2)cc1 | -75.3 |
| COc1ccc(CN=C2NC(=O)CC(C(=O)Nc3ccc(Cl)cc3)S2)cc1 (centres unmarked) | -7.8 |
| COc1ccc(NS(=O)(=O)c2cccc(C(=O)NNC(=O)c3ccccc3OC)c2)cc1 | -16.4 |
| O=C1CC(N2CCN(Cc3ccc4c(c3)OCO4)CC2)C(=O)N1Cc1ccc(N2CCCC2=O)cc1 (centres unmarked) | 5.51 |
| CC(=O)OCCNC(=O)c1cc2ccccc2oc1=O | 9.06 |
| O=C(CSc1nnc(-c2ccc([N+](=O)[O-])cc2)o1)Nc1ccccn1 | 16 |
| Cc1ccc(S(=O)(=O)N(C)c2ccccc2C(=O)N2CCCC2)cc1 | -1.96 |
| CC(=O)Nc1ccc(NC(=O)CC(C)n2ccnc2)cc1 (centres unmarked) | 7.66 |
| O=C(CC1(O)C(=O)N(Cc2cccc3ccccc23)c2ccccc21)c1cccnc1 (centres unmarked) | -17.5 |

| SMILES | hERG current change (%, negative = inhibition) at 10uM [%] |
| --- | --- |
| COc1cc(OC)c(OC)cc1CCC(C)NCCC(c1ccccc1)c1ccccc1.Cl (centres unmarked) | -71.1 |
| Cc1c2cnn(CC(=O)N3CCC4(CC3)OCCO4)c(=O)c2c(C)n1Cc1ccc(F)cc1 | -7.31 |
| COc1ccc(-n2c(SCC(=O)Nc3ccc4c(c3)OCO4)nc3c(c2=O)SCC3)cc1 | -10.9 |
| COC1(c2cc(-c3ccccc3)nc(N)n2)CCCCC1 | -11.4 |
| COc1ccc(/C=N/NC(=O)CCn2nnc3ccccc32)cc1 | 6.87 |
| C=CCNC(=O)c1ccccc1S(=O)c1ccccc1C#N (centres unmarked) | 9.8 |
| Cc1ccc2cc3c(NC(=O)c4ccco4)nn(CC(C)C)c3nc2c1 | 3.99 |
| Nc1nnc(SCC(=O)NC2CCCc3ccccc32)s1 (centres unmarked) | 5.52 |
| COc1ccccc1NC(=S)Nc1cccc(F)c1 | 12.6 |
| CNC(=O)N(O)C1N(C)C(=O)N(CC(=O)OC)C1(C)C (centres unmarked) | 1.55 |
| CC(C)(C)c1ccc(-c2c(C(=O)O)c(C(=O)O)c3n2CSC3)cc1 | 12.8 |
| Cc1ccc(CNC(=O)c2ccc(NS(=O)(=O)c3c(C)noc3C)cc2)cc1 | -6.03 |
| COc1cc(Cl)c(C)cc1Nc1ncccn1 | 4.73 |
| Cc1cccn2c(=O)c3cc(C(=O)N4CCN(Cc5ccccc5)CC4)sc3nc12 | -79.7 |
| COc1ccccc1C(=O)NCCC(=O)NCc1ccccn1 | -2.66 |
| COc1ccc(C(=O)N2N=C(c3cccc(OC)c3)CC2(O)C(F)(F)F)cc1 (centres unmarked) | 6.39 |
| Cc1cc(-c2c(C(=O)N3CCOCC3)c(C)nn2-c2ccccc2)no1 | 11.7 |
| CCCCC(=O)NC(=S)Nc1cc([N+](=O)[O-])ccc1OC | -39.9 |
